# Laboratory results as given in paper PMC4336329 (PLoS ONE, 2015).
# In all, about 310,000 compounds went through this assay and about 2,200 (0.71%) showed an effect of 50% or more. Effects have a minus sign here. The list shows a part of the results.
# Target: human ether-à-go-go-related gene (hERG) potassium channel (human, UniProt Q12809)
# Test: primary screen, population patch clamp on CHO cells stably expressing hERG
# Chain of human ether-à-go-go-related gene (hERG) potassium channel (Q12809 whole entry, looked up): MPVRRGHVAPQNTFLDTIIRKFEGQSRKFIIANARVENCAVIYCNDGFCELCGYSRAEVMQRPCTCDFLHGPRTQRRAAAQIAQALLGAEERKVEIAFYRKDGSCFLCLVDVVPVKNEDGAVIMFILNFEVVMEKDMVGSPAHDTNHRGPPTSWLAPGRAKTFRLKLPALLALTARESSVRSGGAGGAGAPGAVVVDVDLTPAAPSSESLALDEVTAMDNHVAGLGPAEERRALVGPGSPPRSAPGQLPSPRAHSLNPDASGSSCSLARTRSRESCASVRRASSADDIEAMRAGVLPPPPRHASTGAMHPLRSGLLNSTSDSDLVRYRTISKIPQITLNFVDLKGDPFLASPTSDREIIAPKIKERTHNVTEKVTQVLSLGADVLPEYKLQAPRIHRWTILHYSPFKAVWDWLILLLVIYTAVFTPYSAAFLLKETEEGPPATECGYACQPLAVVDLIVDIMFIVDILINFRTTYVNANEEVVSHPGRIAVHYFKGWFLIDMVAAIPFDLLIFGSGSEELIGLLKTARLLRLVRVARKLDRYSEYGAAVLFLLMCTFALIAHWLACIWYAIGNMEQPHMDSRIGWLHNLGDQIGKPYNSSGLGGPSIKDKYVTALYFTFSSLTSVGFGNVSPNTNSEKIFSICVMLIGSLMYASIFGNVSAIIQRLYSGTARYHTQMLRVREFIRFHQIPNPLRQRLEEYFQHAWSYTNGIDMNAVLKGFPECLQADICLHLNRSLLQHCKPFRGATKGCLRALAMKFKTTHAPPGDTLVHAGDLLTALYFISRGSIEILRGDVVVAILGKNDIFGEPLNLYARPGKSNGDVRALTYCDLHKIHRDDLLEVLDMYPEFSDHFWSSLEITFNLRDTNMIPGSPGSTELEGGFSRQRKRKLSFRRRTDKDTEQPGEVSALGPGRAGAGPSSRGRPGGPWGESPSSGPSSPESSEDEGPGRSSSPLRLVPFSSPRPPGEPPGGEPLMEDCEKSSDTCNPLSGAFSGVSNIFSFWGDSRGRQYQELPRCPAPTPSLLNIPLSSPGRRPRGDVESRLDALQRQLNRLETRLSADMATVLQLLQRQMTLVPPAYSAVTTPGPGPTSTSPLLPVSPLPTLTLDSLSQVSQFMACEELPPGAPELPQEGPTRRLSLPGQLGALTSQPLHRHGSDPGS
row,SMILES,"hERG current change (%, negative = inhibition) at 1uM [%]"
1,O=C(NCC1CCOCC1)c1cc(COc2cccc(C(F)(F)F)c2)on1,0.0457
2,CN(C)C(=O)Oc1c(Cl)cc(Cl)c2ccccc12,-41.1
3,O=C(CCS(=O)(=O)c1ccc(Br)cc1)N1CCN(Cc2ccccc2)CC1,7.56
4,Cc1ccc(C(=O)c2sc(Nc3ccccc3)c(C#N)c2N)cc1,8.25
5,Cc1cc(C)n(-c2ccc(C(=O)O)cc2[N+](=O)[O-])n1,7.54
6,COc1ccc(S(=O)(=O)N2CCN(CC(=O)Nc3ccc(F)c(F)c3)CC2)cc1,-20.3
7,COc1cc(/C=N\NC(=O)CNC(=O)C(c2ccccc2)c2ccccc2)ccc1O,12.5
8,COc1ccc(CSC(=N)N)cc1[N+](=O)[O-].Cl,6.74
9,O=C(COC(=O)C1c2ccccc2Oc2ccccc21)Nc1ccc2c(c1)OCO2,10.2
10,Cc1nnc(SC(C)C)n(N)c1=O,9.8
11,Cc1ccc(OC(C)C(=O)N2CC(=O)Nc3ccccc32)c(C)c1 (stereo not drawn),10.7
12,Cc1cc2nc(C)c(Cl)c(=O)n2[nH]1,10
13,COc1ccc(CCNC(=O)COC(=O)/C=C/c2ccc(OCC#N)c(OC)c2)cc1,10.3
14,CN(CC(=O)N1CCc2[nH]c3ccc(F)cc3c2C1)CC1OCCO1,6.59
15,Cc1cc(C(=O)N2CCN(S(=O)(=O)c3ccccc3)CC2)c(C)o1,6.79
16,O=C(NCc1ccc2c(c1)OCO2)c1cc(-c2ccccc2)c(N2CCOCC2)s1,14.1
17,Cc1onc(-c2ccccc2Cl)c1C(=O)NC(C)c1ccccc1 (stereo not drawn),14.8
18,O=c1cc(CSc2nnc(COc3ccc(Cl)cc3)o2)c2ccccc2[nH]1,1.76
19,Cc1ccc(S(=O)(=O)Nn2c(O)c(C=C3N=c4ccccc4=N3)sc2=S)cc1,5.45
20,Cc1cccc(-c2nn(-c3ccccc3)cc2C(=O)N(C)CC(=O)Nc2ccc(N3CCOCC3)cc2)c1,13.5
21,O=C(O)C(=O)O.OCCN1CCN(c2cc(-c3ccccc3)c3ccccc3n2)CC1,-17.6
22,Cc1nnc(SCc2ccc3c(c2)OCO3)s1,-3.47
23,O=C(COc1ccccc1)N1CCCCCCC1,5.76

row,SMILES,"hERG current change (%, negative = inhibition) at 1uM [%]"
1,CCc1nc2ccc(C(=O)N3CCN(c4cccc(OC)c4)CC3)cc2nc1CC,12.3
2,CC(C(=O)OCC(=O)c1ccc(Br)cc1)N1C(=O)C2C3CCC(C3)C2C1=O (stereo not drawn),5.8
3,COc1cc(C(=O)Nc2ccc3c(c2)OCCO3)ccc1OC(C)C,3.1
4,NC(=O)c1ccc(NC(=S)NCc2ccco2)cc1,7.56
5,Cl.OC(CN1CC=C(/C=C/c2ccc(Br)cc2)CC1)c1ccccc1 (stereo not drawn),8.59
6,O=c1c2cc(-c3ccccc3)sc2ncn1-n1cccc1,5.43
7,COc1ccc(-n2cc(CNCc3cnc4ccccn34)c(-c3cccc(F)c3)n2)cc1,7.09
8,O=C(CCl)N(Cc1ccccc1)c1ccccc1,8.67
9,CCN(CC)S(=O)(=O)c1cc(NC(=O)Cn2ncc(Cl)c(Cl)c2=O)ccc1C,10.1
10,Cc1ccc(C)c(N2CCN(C(=O)c3cc(S(=O)(=O)N4CCCC4)cn3C)CC2)c1,10.1
11,CCc1nc2nc(C)c(NS(=O)(=O)c3ccc(C)c(C)c3)c(=O)n2[nH]1,9.82
12,CN(CC(=O)Nc1ccccc1Cl)C(=O)c1cccc(S(=O)(=O)N2CCN(Cc3ccccc3)CC2)c1,11.8
13,CCN1CCCC1Cn1cnc2c([nH]c3ccc(C)cc32)c1=O (stereo not drawn),-63.4
14,CCOCc1c(C(=O)OCC(=O)Nc2ccccc2C(N)=O)oc2ccccc12,0.493
15,COc1cccc(/C=N/NC(=O)C(=O)N2CCCC2)c1OC,13.3
16,Cc1ccc(C(=O)/C=C/c2ccc3ncccc3c2)cc1,10.8
17,Cc1cc(Cl)ccc1OCCCC(=O)N1CCCCC1,-1.97
18,CCC(C)NS(=O)(=O)c1ccc(-c2csnn2)s1 (stereo not drawn),-4.09
19,COc1ccc2cc(Br)ccc2c1CC(=O)NCCCN1CCOCC1,0.112
20,CCCOc1ccc(C(=O)NCCC(=O)NCCCC(=O)OCC)cc1,-2.54
21,CCC(C)(C)NC(=O)c1ccc(S(=O)(=O)N(C)c2ccccc2OC)cc1,9.05
22,Nc1cc(N2CCNCC2)ccc1[N+](=O)[O-],5.5
23,C=CCNC(=O)N1CCC(c2nc3ccccc3s2)CC1,16.5

row,SMILES,"hERG current change (%, negative = inhibition) at 1uM [%]"
1,O=C1CSC(c2ccccc2F)N1c1ccccc1F (stereo not drawn),13
2,CCOC(=O)Cc1nnc(NC(=O)CSc2ncc(-c3ccccc3)nn2)s1,-14.3
3,Fc1ccccc1-c1cc2ccccc2cn1,7.59
4,CCN(CC)CCOC(=O)c1ccc(NC(=O)CCNC(=O)Cn2ccc3ccccc3c2=O)cc1,17.4
5,CCOC(=O)Nc1cccc(NC(=O)c2cc(OC)cc(OC)c2)c1,-3.87
6,CN(C1CCS(=O)(=O)C1)S(=O)(=O)c1cccs1 (stereo not drawn),-17.6
7,CC(N=Cc1nc(-c2ccccc2)oc1O)c1ccccc1 (stereo not drawn),6.15
8,CCOC(=O)C1CCN(S(=O)(=O)c2ccc(CNC(=O)c3ccccc3)s2)CC1,6.5
9,C=C1C(=O)O[C@@H]2[C@H]1[C@@H](OC(=O)/C(C)=C/C)C/C(C)=C\C(=O)/C=C(\C)[C@@H]2O,11
10,COC(=O)CSc1nnc(-c2ccc(S(=O)(=O)N3CCCC3)cc2)n1C,18.8
11,Cc1nc([N+](=O)[O-])c(SCC(O)CCl)n1Cc1ccc(Cl)cc1 (stereo not drawn),-2.57
12,Fc1ccc(/C=N/Nc2ccccn2)cc1,7.93
13,Cc1ccc(C)c(Cn2c(C(=O)OC(C)C)cc3c2ccn3C)c1,1.04
14,CCN1C(=O)[C@@H]2[C@@H](c3ccc(-c4ccc(OC)cc4)c(OC)c3)N3CCCC[C@@]3(C(=O)OC)[C@@H]2C1=O.O=C(O)C(F)(F)F,10.2
15,Cc1sc(NC(=O)c2ccco2)c(CN2CCN(c3ccc(F)cc3)CC2)c1C,13.1
16,N#C/C(=C\c1ccc(Br)s1)C(=O)N1CCN(c2ccccc2)CC1,-8.23
17,COc1ccc(CCNC(=O)CSc2nc(C)cc(C)n2)cc1OC,-2.92
18,CCOC(=O)N1CCC(Nc2c(N3CCN(c4cccc(C(F)(F)F)c4)CC3)c(=O)c2=O)CC1,-36.3
19,CC(=O)Nc1cccc(NC(=O)c2ccccc2OCc2ccccc2)c1,13.5
20,CNc1nc(C)c(C#N)cc1C(C)=O,3.21
21,COc1cc(NC(=O)CC(C)n2ccnc2)cc(OC)c1 (stereo not drawn),12
22,COc1cc(Cl)c(C)cc1NC(C)C(=O)Nc1cc(C(F)(F)F)ccc1N1CCOCC1 (stereo not drawn),8.87
23,COc1cccc2cc(-c3cn4cccc(C)c4n3)c(=O)oc12,17.2

row,SMILES,"hERG current change (%, negative = inhibition) at 1uM [%]"
1,CCN(CC(=O)NCc1cccnc1)S(=O)(=O)c1ccc(OC)cc1,0.0713
2,COc1ccc(C2(CNS(=O)(=O)c3ccccc3)CCOCC2)cc1,6.06
3,Cc1cccc(NC(=S)N/N=C(\c2ccccc2)C(C)C)c1,8.91
4,COc1ccc(Cl)cc1NC(=O)C(C)Sc1n[nH]c(N)n1 (stereo not drawn),11.1
5,CSc1nsc(SC)c1NC(=O)N1CCCCC1,10.7
6,CCCCCCCCCCCCCCCC(O)C(N)CO (stereo not drawn),7.04
7,CCC(C)NS(=O)(=O)c1ccc(OCC(=O)Nc2ccc3c(c2)OCCO3)cc1 (stereo not drawn),-9.54
8,Cc1ccc(S(=O)(=O)N(C)C)cc1NC(=O)COC(=O)/C=C/c1ccc(F)cc1,19
9,C/C(=C\C(=O)c1c(O)cc(C)oc1=O)N(C)C,14.6
10,Cc1ccc(S(=O)(=O)Nc2ccccc2C(N)=O)cc1,5.28
11,COC(=O)c1cc2c(-c3ccccc3)c(C)c3ccccn3c-2c1C(=O)OC,13.1
12,Cc1cccc(NC(=O)c2ccc(Cl)c(S(=O)(=O)N3CCCCC3)c2)n1,-20.8
13,CS(=O)(=O)N(Cc1ccccc1)c1ccc(C(=O)NC2CCCCC2O)cc1 (stereo not drawn),3.66
14,COc1ccc(N2CCN(Cc3cc(=O)oc4ccc(C)cc34)CC2)cc1,13
15,COc1ccc(C(C(=O)NC2CCCC2)N(Cc2cccs2)C(=O)c2ccn[nH]2)cc1OC (stereo not drawn),19.3
16,O=C(CCCc1ccccc1)c1ccccc1,19.4
17,C=CCN1C(=O)CSc2ccc(C(=O)NCCC3=CCCCC3)cc21,-6.7
18,COc1ccc(C)c2sc(=NC(=O)c3ccc(C(C)=O)cc3)n(C)c12,10.2
19,CCOc1ccc(N2C(=O)CC(NCCNc3ccc([N+](=O)[O-])cn3)C2=O)cc1 (stereo not drawn),-37.8
20,S=C(Nc1ccccc1)c1ccccn1,11
21,O=c1[nH]c(C2CCN(S(=O)(=O)c3ccccc3)CC2)nc2c1nnn2Cc1cccc(Cl)c1,10.5
